# The other results are listed elsewhere or left out.
# Tests used:
# Assay in all cases: glycan array binding signal (z-score within array); higher = stronger binding
# Details in all cases: glycan notation: IUPAC condensed, linker removed
# [1] = target: Gal(b1-4)GlcNAc(b1-2)Man(a1-3)[Gal(b1-4)GlcNAc(b1-2)Man(a1-6)]Man(b1-4)GlcNAc(b1-4)GlcNAc
# Procedure, shortened: (§1)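 Glycan array data came from 3228 arrays in the Consortium for Functional Glycomics database, and only arrays with an available protein sequence were kept. Glycan names were put into IUPAC-condensed notation, and columns mapping to the same glycan were averaged. The binding signal is a within-array Z-score, averaged across arrays of one protein sequence run at different concentrations or buffers and across linkers. A negative Z-score can be read as non-binding.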
# [2] = target: Gal(b1-4)GlcNAc(b1-2)Man(a1-3)[Gal(b1-4)GlcNAc(b1-2)Man(a1-6)]Man(b1-4)GlcNAc(b1-4)[Fuc(a1-6)]GlcNAc
# Procedure, shortened: as §1
# [3] = target: Gal(b1-4)GlcNAc(b1-2)Man(a1-3)[Gal(b1-4)GlcNAc(b1-2)][GlcNAc(b1-4)]Man(b1-4)GlcNAc(b1-4)GlcNAc
# Procedure, shortened: as §1
# [4] = target: Gal(b1-4)GlcNAc(b1-2)Man(a1-3)[GlcNAc(b1-2)Man(a1-6)]Man(b1-4)GlcNAc(b1-4)GlcNAc
# Procedure, shortened: as §1
# [5] = target: Gal(b1-4)GlcNAc(b1-2)Man(a1-3)[Man(a1-6)]Man(b1-4)GlcNAc(b1-4)GlcNAc
# Procedure, shortened: as §1
# [6] = target: Gal(b1-4)GlcNAc(b1-2)Man(a1-6)Man(b1-4)GlcNAc(b1-4)GlcNAc
# Procedure, shortened: as §1
# [7] = target: Gal(b1-4)GlcNAc(b1-2)Man(a1-6)[GlcNAc(b1-2)Man(a1-3)]Man(b1-4)GlcNAc(b1-4)GlcNAc
# Procedure, shortened: as §1
# [8] = target: Gal(b1-4)GlcNAc(b1-2)Man(a1-6)[Man(a1-3)]Man(b1-4)GlcNAc(b1-4)GlcNAc
# Procedure, shortened: as §1
# [9] = target: Gal(b1-4)GlcNAc(b1-2)[Gal(b1-4)GlcNAc(b1-4)]Man(a1-3)[Gal(b1-4)GlcNAc(b1-2)Man(a1-6)]Man(b1-4)GlcNAc(b1-4)GlcNAc
# Procedure, shortened: as §1
# [10] = target: Gal(b1-4)GlcNAc(b1-2)[Gal(b1-4)GlcNAc(b1-4)]Man(a1-3)[Gal(b1-4)GlcNAc(b1-2)[Gal(b1-4)GlcNAc(b1-6)]Man(a1-6)]Man(b1-4)GlcNAc(b1-4)GlcNAc
# Procedure, shortened: as §1
# [11] = target: Gal(b1-4)GlcNAc(b1-2)[Gal(b1-4)GlcNAc(b1-4)]Man(a1-3)[GlcNAc(b1-4)][Gal(b1-4)GlcNAc(b1-2)Man(a1-6)]Man(b1-4)GlcNAc(b1-4)GlcNAc
# Procedure, shortened: as §1
# [12] = target: Gal(b1-4)GlcNAc(b1-2)[Gal(b1-4)GlcNAc(b1-4)]Man(a1-3)[GlcNAc(b1-4)][Gal(b1-4)GlcNAc(b1-2)[Gal(b1-4)GlcNAc(b1-6)]Man(a1-6)]Man(b1-4)GlcNAc(b1-4)GlcNAc
# Procedure, shortened: as §1
# [13] = target: Gal(b1-4)GlcNAc(b1-2)[Gal(b1-4)GlcNAc(b1-6)]Man(a1-6)[Gal(b1-4)GlcNAc(b1-2)Man(a1-3)]Man(b1-4)GlcNAc(b1-4)GlcNAc
# Procedure, shortened: as §1
# [14] = target: Gal(b1-4)GlcNAc(b1-2)[Gal(b1-4)GlcNAc(b1-6)]Man(a1-6)[GlcNAc(b1-4)][Gal(b1-4)GlcNAc(b1-2)Man(a1-3)]Man(b1-4)GlcNAc(b1-4)GlcNAc
# Procedure, shortened: as §1
# [15] = target: Gal(b1-4)GlcNAc(b1-3)Gal(b1-3)GlcNAc
# Procedure, shortened: as §1
# [16] = target: Gal(b1-4)GlcNAc(b1-3)Gal(b1-4)Glc
# Procedure, shortened: as §1
# [17] = target: Gal(b1-4)GlcNAc(b1-3)Gal(b1-4)GlcNAc
# Procedure, shortened: as §1
# [18] = target: Gal(b1-4)GlcNAc(b1-3)Gal(b1-4)GlcNAc(b1-3)Gal(b1-4)GlcNAc
# Procedure, shortened: as §1
# [19] = target: Gal(b1-4)GlcNAc(b1-3)Gal(b1-4)[Fuc(a1-3)GlcNAc(b1-6)]Gal(b1-4)Glc
# Procedure, shortened: as §1
# [20] = target: Gal(b1-4)GlcNAc(b1-3)Gal(b1-4)[Fuc(a1-3)]GlcNAc(b1-3)Gal(b1-4)[Fuc(a1-3)]GlcNAc
# Procedure, shortened: as §1
# [21] = target: Gal(b1-4)GlcNAc(b1-3)GalNAc
# Procedure, shortened: as §1
# [22] = target: Gal(b1-4)GlcNAc(b1-3)[Gal(b1-4)GlcNAc(b1-6)]Gal(b1-4)GlcNAc
# Procedure, shortened: as §1
# [23] = target: Gal(b1-4)GlcNAc(b1-3)[Gal(b1-4)GlcNAc(b1-6)]GalNAc
# Procedure, shortened: as §1
# [24] = target: Gal(b1-4)GlcNAc(b1-3)[GlcNAc(b1-6)]Gal(b1-4)GlcNAc
# Procedure, shortened: as §1
# [25] = target: Gal(b1-4)GlcNAc(b1-6)Gal(b1-4)GlcNAc
# Procedure, shortened: as §1
# [26] = target: Gal(b1-4)GlcNAc(b1-6)GalNAc
# Procedure, shortened: as §1
# [27] = target: Gal(b1-4)GlcNAc(b1-6)[Gal(b1-3)]GalNAc
# Procedure, shortened: as §1
# Gal(b1-6)Gal = target: Gal(b1-6)Gal
# Procedure, shortened: as §1
# Gal3S(b1-3)GalNAc = target: Gal3S(b1-3)GalNAc
# Procedure, shortened: as §1
# Gal3S(b1-3)GlcNAc = target: Gal3S(b1-3)GlcNAc
# Procedure, shortened: as §1
# [28] = target: Gal3S(b1-3)[Fuc(a1-4)]GlcNAc
# Procedure, shortened: as §1
# Gal3S(b1-4)Glc = target: Gal3S(b1-4)Glc
# Procedure, shortened: as §1
# Gal3S(b1-4)Glc6S = target: Gal3S(b1-4)Glc6S
# Procedure, shortened: as §1
# Gal3S(b1-4)GlcNAc = target: Gal3S(b1-4)GlcNAc
# Procedure, shortened: as §1
# Gal3S(b1-4)GlcNAc6S = target: Gal3S(b1-4)GlcNAc6S
# Procedure, shortened: as §1
# [29] = target: Gal3S(b1-4)[Fuc(a1-3)]Glc
# Procedure, shortened: as §1
# [30] = target: Gal3S(b1-4)[Fuc(a1-3)]Glc6S
# Procedure, shortened: as §1
# Gal3S4S(b1-4)GlcNAc = target: Gal3S4S(b1-4)GlcNAc
# Procedure, shortened: as §1
# Gal3S6S(b1-4)GlcNAc = target: Gal3S6S(b1-4)GlcNAc
# Procedure, shortened: as §1
# Gal3S6S(b1-4)GlcNAc6S = target: Gal3S6S(b1-4)GlcNAc6S
# Procedure, shortened: as §1
# Gal4S(b1-4)GlcNAc = target: Gal4S(b1-4)GlcNAc
# Procedure, shortened: as §1
# Gal4S6S(b1-4)GlcNAc = target: Gal4S6S(b1-4)GlcNAc
# Procedure, shortened: as §1
# Gal6S(b1-3)GlcNAc = target: Gal6S(b1-3)GlcNAc
# Procedure, shortened: as §1
# Gal6S(b1-3)GlcNAc6S = target: Gal6S(b1-3)GlcNAc6S
# Procedure, shortened: as §1
# Gal6S(b1-4)Glc = target: Gal6S(b1-4)Glc
# Procedure, shortened: as §1
binder,measurement,setting,value
"GNAT (Pseudomonas aeruginosa), Q9HV14 (protein) MQLSHRPAETGDLETVAGFPQDRDELFYCYPKAIWPFSVAQLAAAIAERRGSTVAVHDGQVLGFANFYQWQHGDFCALGNMMVAPAARGLGVARYLIGVMENLAREQYKARLMKISCFNANAAGLLLYTQLGYQPRAIAERHDPDGRRVALIQMDKPLEP",glycan array binding signal (z-score),[1],0.642
same,glycan array binding signal (z-score),[2],1.65
same,glycan array binding signal (z-score),[3],-0.346
same,glycan array binding signal (z-score),[4],0.022
same,glycan array binding signal (z-score),[5],0.566
same,glycan array binding signal (z-score),[6],1.43
same,glycan array binding signal (z-score),[7],0.319
same,glycan array binding signal (z-score),[8],0.29
same,glycan array binding signal (z-score),[9],0.525
same,glycan array binding signal (z-score),[10],-0.343
same,glycan array binding signal (z-score),[11],2.72
same,glycan array binding signal (z-score),[12],-0.234
same,glycan array binding signal (z-score),[13],1.21
same,glycan array binding signal (z-score),[14],-0.222
same,glycan array binding signal (z-score),[15],-0.087
same,glycan array binding signal (z-score),[16],0.935
same,glycan array binding signal (z-score),[17],1.75
same,glycan array binding signal (z-score),[18],-0.351
same,glycan array binding signal (z-score),[19],0.293
same,glycan array binding signal (z-score),[20],0.003
same,glycan array binding signal (z-score),[21],-0.363
same,glycan array binding signal (z-score),[22],-0.269
same,glycan array binding signal (z-score),[23],1.36
same,glycan array binding signal (z-score),[24],0.59
same,glycan array binding signal (z-score),[25],0.092
same,glycan array binding signal (z-score),[26],0.089
same,glycan array binding signal (z-score),[27],-0.145
same,glycan array binding signal (z-score),Gal(b1-6)Gal,-0.102
same,glycan array binding signal (z-score),Gal3S(b1-3)GalNAc,-0.487
same,glycan array binding signal (z-score),Gal3S(b1-3)GlcNAc,-0.414
same,glycan array binding signal (z-score),[28],-0.441
same,glycan array binding signal (z-score),Gal3S(b1-4)Glc,-0.394
same,glycan array binding signal (z-score),Gal3S(b1-4)Glc6S,3.17
same,glycan array binding signal (z-score),Gal3S(b1-4)GlcNAc,-0.396
same,glycan array binding signal (z-score),Gal3S(b1-4)GlcNAc6S,-0.322
same,glycan array binding signal (z-score),[29],-0.301
same,glycan array binding signal (z-score),[30],6.54
same,glycan array binding signal (z-score),Gal3S4S(b1-4)GlcNAc,-0.461
same,glycan array binding signal (z-score),Gal3S6S(b1-4)GlcNAc,-0.303
same,glycan array binding signal (z-score),Gal3S6S(b1-4)GlcNAc6S,-0.379
same,glycan array binding signal (z-score),Gal4S(b1-4)GlcNAc,-0.465
same,glycan array binding signal (z-score),Gal4S6S(b1-4)GlcNAc,-0.427
same,glycan array binding signal (z-score),Gal6S(b1-3)GlcNAc,-0.358
same,glycan array binding signal (z-score),Gal6S(b1-3)GlcNAc6S,-0.1
same,glycan array binding signal (z-score),Gal6S(b1-4)Glc,-0.356

# Source: the supplement of paper PMC8728848
